Data on 31 molecules can be found in publication PMC9911399, “Two distinct binding modes provide the RNA-binding protein RbFox with extraordinary sequence specificity”.

T1: RBFOX1 RRM RbFoxmut (Fox-RRM*) (Homo sapiens, UniProt Q9NWB1 109-208, R118D;E147R;N151S;E152T)
T1 sequence: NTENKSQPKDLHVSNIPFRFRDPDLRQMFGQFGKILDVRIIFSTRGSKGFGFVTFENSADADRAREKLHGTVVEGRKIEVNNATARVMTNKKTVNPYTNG

B1: UUGCCCC (DNA:RNA)
RNA: GGGAGACCGGAAUUCAGAUUGUCCUUGCCCCUUAAAUCCCGUCGUAGCCACCA
DNA 1: CAATCTGAATTCCGGTCTCCC
DNA 2: TGGTGGCTACGACGGGATT
B2: CAAAGGA (DNA:RNA)
RNA: GGGAGACCGGAAUUCAGAUUGUCCCAAAGGAUUAAAUCCCGUCGUAGCCACCA
DNA 1: CAATCTGAATTCCGGTCTCCC
DNA 2: TGGTGGCTACGACGGGATT
B3: GUAUCAG (DNA:RNA)
RNA: B1 RNA with U25G, G27A, C28U, C30A, C31G
DNA 1: CAATCTGAATTCCGGTCTCCC
DNA 2: TGGTGGCTACGACGGGATT
B4: GGCCUAC (DNA:RNA)
RNA: B1 RNA with U25G, U26G, G27C, C29U, C30A
DNA 1: CAATCTGAATTCCGGTCTCCC
DNA 2: TGGTGGCTACGACGGGATT
B5: CGAGUCC (DNA:RNA)
RNA: B2 RNA with A26G, A28G, G29U, G30C, A31C
DNA 1: CAATCTGAATTCCGGTCTCCC
DNA 2: TGGTGGCTACGACGGGATT
B6: UCUGUAA (DNA:RNA)
RNA: B2 RNA with C25U, A26C, A27U, A28G, G29U, G30A
DNA 1: CAATCTGAATTCCGGTCTCCC
DNA 2: TGGTGGCTACGACGGGATT
B7: AGCCCCG (DNA:RNA)
RNA: B1 RNA with U25A, U26G, G27C, C31G
DNA 1: CAATCTGAATTCCGGTCTCCC
DNA 2: TGGTGGCTACGACGGGATT
B8: AUACUGA (DNA:RNA)
RNA: B2 RNA with C25A, A26U, A28C, G29U
DNA 1: CAATCTGAATTCCGGTCTCCC
DNA 2: TGGTGGCTACGACGGGATT
B9: AUGCUGG (DNA:RNA)
RNA: B1 RNA with U25A, C29U, C30G, C31G
DNA 1: CAATCTGAATTCCGGTCTCCC
DNA 2: TGGTGGCTACGACGGGATT
B10: AACUUCU (DNA:RNA)
RNA: B2 RNA with C25A, A27C, A28U, G29U, G30C, A31U
DNA 1: CAATCTGAATTCCGGTCTCCC
DNA 2: TGGTGGCTACGACGGGATT
B11: GAUUGUC (DNA:RNA)
RNA: B2 RNA with C25G, A27U, A28U, G30U, A31C
DNA 1: CAATCTGAATTCCGGTCTCCC
DNA 2: TGGTGGCTACGACGGGATT
B12: GAACUUC (DNA:RNA)
RNA: B2 RNA with C25G, A28C, G29U, G30U, A31C
DNA 1: CAATCTGAATTCCGGTCTCCC
DNA 2: TGGTGGCTACGACGGGATT
B13: AAACGCU (DNA:RNA)
RNA: B2 RNA with C25A, A28C, G30C, A31U
DNA 1: CAATCTGAATTCCGGTCTCCC
DNA 2: TGGTGGCTACGACGGGATT
B14: UAUGCUA (DNA:RNA)
RNA: B2 RNA with C25U, A27U, A28G, G29C, G30U
DNA 1: CAATCTGAATTCCGGTCTCCC
DNA 2: TGGTGGCTACGACGGGATT
B15: UGUCGGU (DNA:RNA)
RNA: B2 RNA with C25U, A26G, A27U, A28C, A31U
DNA 1: CAATCTGAATTCCGGTCTCCC
DNA 2: TGGTGGCTACGACGGGATT
B16: ACUGACA (DNA:RNA)
RNA: B2 RNA with C25A, A26C, A27U, A28G, G29A, G30C
DNA 1: CAATCTGAATTCCGGTCTCCC
DNA 2: TGGTGGCTACGACGGGATT
B17: CAACCUA (DNA:RNA)
RNA: B2 RNA with A28C, G29C, G30U
DNA 1: CAATCTGAATTCCGGTCTCCC
DNA 2: TGGTGGCTACGACGGGATT
B18: CCCGUAU (DNA:RNA)
RNA: B2 RNA with A26C, A27C, A28G, G29U, G30A, A31U
DNA 1: CAATCTGAATTCCGGTCTCCC
DNA 2: TGGTGGCTACGACGGGATT
B19: CCCGUGA (DNA:RNA)
RNA: B2 RNA with A26C, A27C, A28G, G29U
DNA 1: CAATCTGAATTCCGGTCTCCC
DNA 2: TGGTGGCTACGACGGGATT
B20: GAACUCG (DNA:RNA)
RNA: B2 RNA with C25G, A28C, G29U, G30C, A31G
DNA 1: CAATCTGAATTCCGGTCTCCC
DNA 2: TGGTGGCTACGACGGGATT
B21: GUUAUCG (DNA:RNA)
RNA: B1 RNA with U25G, G27U, C28A, C29U, C31G
DNA 1: CAATCTGAATTCCGGTCTCCC
DNA 2: TGGTGGCTACGACGGGATT
B22: AGCUCCA (DNA:RNA)
RNA: B1 RNA with U25A, U26G, G27C, C28U, C31A
DNA 1: CAATCTGAATTCCGGTCTCCC
DNA 2: TGGTGGCTACGACGGGATT
B23: CUUUCGA (DNA:RNA)
RNA: B2 RNA with A26U, A27U, A28U, G29C
DNA 1: CAATCTGAATTCCGGTCTCCC
DNA 2: TGGTGGCTACGACGGGATT
B24: CCAGUAA (DNA:RNA)
RNA: B2 RNA with A26C, A28G, G29U, G30A
DNA 1: CAATCTGAATTCCGGTCTCCC
DNA 2: TGGTGGCTACGACGGGATT
B25: GAUGUGA (DNA:RNA)
RNA: B2 RNA with C25G, A27U, A28G, G29U
DNA 1: CAATCTGAATTCCGGTCTCCC
DNA 2: TGGTGGCTACGACGGGATT
B26: GCCGGUU (DNA:RNA)
RNA: B2 RNA with C25G, A26C, A27C, A28G, G30U, A31U
DNA 1: CAATCTGAATTCCGGTCTCCC
DNA 2: TGGTGGCTACGACGGGATT
B27: GUUUCCC (DNA:RNA)
RNA: B1 RNA with U25G, G27U, C28U
DNA 1: CAATCTGAATTCCGGTCTCCC
DNA 2: TGGTGGCTACGACGGGATT
B28: UCAUCUC (DNA:RNA)
RNA: B1 RNA with U26C, G27A, C28U, C30U
DNA 1: CAATCTGAATTCCGGTCTCCC
DNA 2: TGGTGGCTACGACGGGATT
B29: CGCAUGU (DNA:RNA)
RNA: B2 RNA with A26G, A27C, G29U, A31U
DNA 1: CAATCTGAATTCCGGTCTCCC
DNA 2: TGGTGGCTACGACGGGATT
B30: GUAGUAG (DNA:RNA)
RNA: B2 RNA with C25G, A26U, A28G, G29U, G30A, A31G
DNA 1: CAATCTGAATTCCGGTCTCCC
DNA 2: TGGTGGCTACGACGGGATT
B31: UCAUGCC (DNA:RNA)
RNA: B1 RNA with U26C, G27A, C28U, C29G
DNA 1: CAATCTGAATTCCGGTCTCCC
DNA 2: TGGTGGCTACGACGGGATT

Numbering of substitutions follows the chain as printed; changes in the protein carry UniProt numbers. The list shows a part of the results.

This assay addresses T1, RBFOX1 RRM RbFoxmut (Fox-RRM*). Nature of the assay: EMSA; HiTS-Eq, 1 nM pool, 10 min; buffer printed only for the single-RNA assays: 10 mM Tris pH 7.5, 150 mM NaCl, 3.4 mM EDTA, 0.001% NP-40, 30 C. The settings on record: tags: His6 N-terminal (pET28a); label: 5' 32P. An outline of the steps: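 These values rest on relative association constants, computed from read-count changes of each RNA species versus the control reaction and normalised to the cognate motif. Reads came from free RNA recovered by 8% native PAGE after purified RbFox RRM (wild type or mutant) at increasing concentrations was equilibrated for 10 min in 50 µL with 1 nM of a 5′-radiolabelled pool with 7 randomized nucleotides and DNA-annealed flanks.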
A general note: In EMSA bound probe runs differently from free probe, usually more slowly.
On to B1, for which the binding signal was 0.0741 KA relative to UGCAUGU.

For B2, the binding signal was 0.0585 KA relative to UGCAUGU.

Take B3: the binding signal was 0.229 KA relative to UGCAUGU.

Regarding B4, the binding signal was 0.0604 KA relative to UGCAUGU.

Take B5: the binding signal is 0.101 KA relative to UGCAUGU.

In the case of B6, the binding signal is 0.13 KA relative to UGCAUGU.

Take B7: the binding signal was 0.0812 KA relative to UGCAUGU.

With B8, the binding signal was 0.0711 KA relative to UGCAUGU.

Regarding B9, the binding signal is 0.126 KA relative to UGCAUGU.

In the case of B10, the binding signal was 0.0625 KA relative to UGCAUGU.

As for B11, the binding signal is 0.286 KA relative to UGCAUGU.

For B12, the binding signal is 0.0369 KA relative to UGCAUGU.

As to B13, the binding signal was 0.0595 KA relative to UGCAUGU.

B14: the binding signal was 0.079 KA relative to UGCAUGU.

B15: the binding signal was 0.112 KA relative to UGCAUGU.

Turning to B16, the binding signal is 0.0695 KA relative to UGCAUGU.

Regarding B17, the binding signal is 0.104 KA relative to UGCAUGU.

In the case of B18, the binding signal is 0.0911 KA relative to UGCAUGU.

Consider B19, for which the binding signal was 0.0904 KA relative to UGCAUGU.

For B20, the binding signal is 0.0544 KA relative to UGCAUGU.

As for B21, the binding signal was 0.171 KA relative to UGCAUGU.

As for B22, the binding signal was 0.0731 KA relative to UGCAUGU.

Take B23: the binding signal is 0.079 KA relative to UGCAUGU.

Regarding B24, the binding signal was 0.108 KA relative to UGCAUGU.

Turning to B25, the binding signal is 0.0836 KA relative to UGCAUGU.

For B26, the binding signal was 0.0826 KA relative to UGCAUGU.

Turning to B27, the binding signal is 0.0699 KA relative to UGCAUGU.

Consider B28, for which the binding signal was 0.0684 KA relative to UGCAUGU.

In the case of B29, the binding signal is 1.08 KA relative to UGCAUGU.

As to B30, the binding signal is 0.147 KA relative to UGCAUGU.

Take B31: the binding signal is 0.202 KA relative to UGCAUGU.
